Assay results as given in the supplement of paper PMC10724272.
MIC of invasive clinical C. tropicalis isolates, CLSI broth microdilution (fluconazole 0.12-256 mg/L, up to 1,024 for the azole-resistant cluster and its neighbour group; other ranges not stated); higher = less susceptible. Call: susceptible or wild type [S] / resistant or non-wild type [R] by CLSI breakpoints or cut-offs; intermediate and dose-dependent carry no call. '<=' and '>=' at the end values are inferred; the source marks only some of them. Isolates are numbered anew.

compound: CCCCCOc1ccc(-c2ccc(-c3ccc(C(=O)N[C@H]4C[C@@H](O)[C@@H](O)NC(=O)[C@@H]5[C@@H](O)[C@@H](C)CN5C(=O)[C@H]([C@@H](C)O)NC(=O)[C@H]([C@H](O)[C@@H](O)c5ccc(O)cc5)NC(=O)[C@@H]5C[C@@H](O)CN5C(=O)[C@H]([C@@H](C)O)NC4=O)cc3)cc2)cc1 [anidulafungin]; experiment: CLSI broth microdilution.

Row | Test System | MIC
1 | Candida tropicalis isolate 377 (ERG11 copies: 8, Erg11p: Y132F, S154F (heterozygous)) | 0.03 mg/L [S]
2 | Candida tropicalis isolate 330 (ERG11 copies: 7, Erg11p: Y132F, S154F (heterozygous)) | 0.12 mg/L [S]
3 | Candida tropicalis isolate 175 (ERG11 copies: 2, Erg11p: Y257H (homozygous)) | 0.03 mg/L [S]
4 | Candida tropicalis isolate 312 (ERG11 copies: 2, Erg11p: Y132F, S154F (homozygous)) | 0.03 mg/L [S]
5 | Candida tropicalis isolate 281 (ERG11 copies: 2, Erg11p: no key change) | 0.12 mg/L [S]
6 | Candida tropicalis isolate 274 (ERG11 copies: 2, Erg11p: no key change) | 0.12 mg/L [S]
7 | Candida tropicalis isolate 347 (ERG11 copies: 2, Erg11p: no key change) | 0.12 mg/L [S]
8 | Candida tropicalis isolate 258 (ERG11 copies: 2, Erg11p: no key change) | 0.12 mg/L [S]
9 | Candida tropicalis isolate 344 (ERG11 copies: 2, Erg11p: no key change) | 0.25 mg/L [S]
10 | Candida tropicalis isolate 319 (ERG11 copies: 2, Erg11p: no key change) | 0.03 mg/L [S]
11 | Candida tropicalis isolate 422 (ERG11 copies: 2, Erg11p: no key change) | ≤ 0.015 mg/L [S]
12 | Candida tropicalis isolate 57 (ERG11 copies: 2, Erg11p: no key change) | 0.03 mg/L [S]
13 | Candida tropicalis isolate 222 (ERG11 copies: 5, Erg11p: Y132F, S154F, P397S (heterozygous)) | 0.06 mg/L [S]
14 | Candida tropicalis isolate 370 (ERG11 copies: 2, Erg11p: no key change) | 0.06 mg/L [S]
15 | Candida tropicalis isolate 283 (ERG11 copies: 2, Erg11p: no key change) | 0.12 mg/L [S]
16 | Candida tropicalis isolate 43 (ERG11 copies: 10, Erg11p: Y132F, S154F (homozygous)) | ≤ 0.015 mg/L [S]
17 | Candida tropicalis isolate 351 (ERG11 copies: 2, Erg11p: no key change) | 0.12 mg/L [S]

compound: CC[C@@H]([C@H](C)O)n1ncn(-c2ccc(N3CCN(c4ccc(OC[C@@H]5CO[C@@](Cn6cncn6)(c6ccc(F)cc6F)C5)cc4)CC3)cc2)c1=O [posaconazole]; experiment: CLSI broth microdilution.

Row | Test System | MIC
18 | Candida tropicalis isolate 69 (ERG11 copies: 2, Erg11p: no key change) | 0.06 mg/L [S]
19 | Candida tropicalis isolate 168 (ERG11 copies: 2, Erg11p: no key change) | 0.12 mg/L [S]
20 | Candida tropicalis isolate 388 (ERG11 copies: 2, Erg11p: no key change) | 1 mg/L [R]
21 | Candida tropicalis isolate 67 (ERG11 copies: 2, Erg11p: no key change) | 0.06 mg/L [S]
22 | Candida tropicalis isolate 265 (ERG11 copies: 13, Erg11p: Y132F, S154F (homozygous)) | 2 mg/L [R]
23 | Candida tropicalis isolate 377 (ERG11 copies: 8, Erg11p: Y132F, S154F (heterozygous)) | 0.5 mg/L [R]
24 | Candida tropicalis isolate 330 (ERG11 copies: 7, Erg11p: Y132F, S154F (heterozygous)) | 0.5 mg/L [R]
25 | Candida tropicalis isolate 175 (ERG11 copies: 2, Erg11p: Y257H (homozygous)) | 0.25 mg/L [S]
26 | Candida tropicalis isolate 312 (ERG11 copies: 2, Erg11p: Y132F, S154F (homozygous)) | 0.5 mg/L [R]
27 | Candida tropicalis isolate 281 (ERG11 copies: 2, Erg11p: no key change) | 0.25 mg/L [S]
28 | Candida tropicalis isolate 274 (ERG11 copies: 2, Erg11p: no key change) | 0.25 mg/L [S]
29 | Candida tropicalis isolate 347 (ERG11 copies: 2, Erg11p: no key change) | 0.25 mg/L [S]
30 | Candida tropicalis isolate 258 (ERG11 copies: 2, Erg11p: no key change) | 0.5 mg/L [R]
31 | Candida tropicalis isolate 344 (ERG11 copies: 2, Erg11p: no key change) | 0.12 mg/L [S]
32 | Candida tropicalis isolate 319 (ERG11 copies: 2, Erg11p: no key change) | 0.25 mg/L [S]
33 | Candida tropicalis isolate 422 (ERG11 copies: 2, Erg11p: no key change) | 0.25 mg/L [S]
34 | Candida tropicalis isolate 57 (ERG11 copies: 2, Erg11p: no key change) | 0.25 mg/L [S]
35 | Candida tropicalis isolate 222 (ERG11 copies: 5, Erg11p: Y132F, S154F, P397S (heterozygous)) | 1 mg/L [R]
36 | Candida tropicalis isolate 370 (ERG11 copies: 2, Erg11p: no key change) | 0.12 mg/L [S]
37 | Candida tropicalis isolate 283 (ERG11 copies: 2, Erg11p: no key change) | 0.25 mg/L [S]
38 | Candida tropicalis isolate 43 (ERG11 copies: 10, Erg11p: Y132F, S154F (homozygous)) | 0.25 mg/L [S]
39 | Candida tropicalis isolate 351 (ERG11 copies: 2, Erg11p: no key change) | 0.25 mg/L [S]

compound: CC[C@H](C)C[C@H](C)CCCCCCCCC(=O)N[C@H]1C[C@@H](O)[C@@H](NCCN)NC(=O)[C@@H]2[C@@H](O)CCN2C(=O)[C@H]([C@H](O)CCN)NC(=O)[C@H]([C@H](O)[C@@H](O)c2ccc(O)cc2)NC(=O)[C@@H]2C[C@@H](O)CN2C(=O)[C@H]([C@@H](C)O)NC1=O [caspofungin]; experiment: CLSI broth microdilution.

Row | Test System | MIC
40 | Candida tropicalis isolate 69 (ERG11 copies: 2, Erg11p: no key change) | 0.03 mg/L [S]
41 | Candida tropicalis isolate 168 (ERG11 copies: 2, Erg11p: no key change) | 0.25 mg/L [S]
42 | Candida tropicalis isolate 388 (ERG11 copies: 2, Erg11p: no key change) | 0.06 mg/L [S]
43 | Candida tropicalis isolate 67 (ERG11 copies: 2, Erg11p: no key change) | 0.06 mg/L [S]
44 | Candida tropicalis isolate 265 (ERG11 copies: 13, Erg11p: Y132F, S154F (homozygous)) | 0.06 mg/L [S]
45 | Candida tropicalis isolate 377 (ERG11 copies: 8, Erg11p: Y132F, S154F (heterozygous)) | 0.015 mg/L [S]
46 | Candida tropicalis isolate 330 (ERG11 copies: 7, Erg11p: Y132F, S154F (heterozygous)) | 0.03 mg/L [S]
47 | Candida tropicalis isolate 175 (ERG11 copies: 2, Erg11p: Y257H (homozygous)) | 0.03 mg/L [S]
48 | Candida tropicalis isolate 312 (ERG11 copies: 2, Erg11p: Y132F, S154F (homozygous)) | 0.06 mg/L [S]
49 | Candida tropicalis isolate 281 (ERG11 copies: 2, Erg11p: no key change) | 0.06 mg/L [S]
50 | Candida tropicalis isolate 274 (ERG11 copies: 2, Erg11p: no key change) | 0.03 mg/L [S]
